Experimental data reported in PMC10022797, “Role of Nesprin-2 and RanBP2 in BICD2-associated brain developmental disorders” (PLOS Genetics, 2023).
Results are given in words; binding and its absence hold for the method and conditions named. For some assays here: Binding seen in cells or lysates may run through a third protein. Some binding calls cover weakened binding; strength is not graded here.

Amino acid sequences for entries named in this document (tags omitted). A change or cut given only in a name is not applied to a line headed by its entry. Chains listed by the source or under a name are the forms on record and can include a tag or linker. Residues count along the entry.
UniProt P49792: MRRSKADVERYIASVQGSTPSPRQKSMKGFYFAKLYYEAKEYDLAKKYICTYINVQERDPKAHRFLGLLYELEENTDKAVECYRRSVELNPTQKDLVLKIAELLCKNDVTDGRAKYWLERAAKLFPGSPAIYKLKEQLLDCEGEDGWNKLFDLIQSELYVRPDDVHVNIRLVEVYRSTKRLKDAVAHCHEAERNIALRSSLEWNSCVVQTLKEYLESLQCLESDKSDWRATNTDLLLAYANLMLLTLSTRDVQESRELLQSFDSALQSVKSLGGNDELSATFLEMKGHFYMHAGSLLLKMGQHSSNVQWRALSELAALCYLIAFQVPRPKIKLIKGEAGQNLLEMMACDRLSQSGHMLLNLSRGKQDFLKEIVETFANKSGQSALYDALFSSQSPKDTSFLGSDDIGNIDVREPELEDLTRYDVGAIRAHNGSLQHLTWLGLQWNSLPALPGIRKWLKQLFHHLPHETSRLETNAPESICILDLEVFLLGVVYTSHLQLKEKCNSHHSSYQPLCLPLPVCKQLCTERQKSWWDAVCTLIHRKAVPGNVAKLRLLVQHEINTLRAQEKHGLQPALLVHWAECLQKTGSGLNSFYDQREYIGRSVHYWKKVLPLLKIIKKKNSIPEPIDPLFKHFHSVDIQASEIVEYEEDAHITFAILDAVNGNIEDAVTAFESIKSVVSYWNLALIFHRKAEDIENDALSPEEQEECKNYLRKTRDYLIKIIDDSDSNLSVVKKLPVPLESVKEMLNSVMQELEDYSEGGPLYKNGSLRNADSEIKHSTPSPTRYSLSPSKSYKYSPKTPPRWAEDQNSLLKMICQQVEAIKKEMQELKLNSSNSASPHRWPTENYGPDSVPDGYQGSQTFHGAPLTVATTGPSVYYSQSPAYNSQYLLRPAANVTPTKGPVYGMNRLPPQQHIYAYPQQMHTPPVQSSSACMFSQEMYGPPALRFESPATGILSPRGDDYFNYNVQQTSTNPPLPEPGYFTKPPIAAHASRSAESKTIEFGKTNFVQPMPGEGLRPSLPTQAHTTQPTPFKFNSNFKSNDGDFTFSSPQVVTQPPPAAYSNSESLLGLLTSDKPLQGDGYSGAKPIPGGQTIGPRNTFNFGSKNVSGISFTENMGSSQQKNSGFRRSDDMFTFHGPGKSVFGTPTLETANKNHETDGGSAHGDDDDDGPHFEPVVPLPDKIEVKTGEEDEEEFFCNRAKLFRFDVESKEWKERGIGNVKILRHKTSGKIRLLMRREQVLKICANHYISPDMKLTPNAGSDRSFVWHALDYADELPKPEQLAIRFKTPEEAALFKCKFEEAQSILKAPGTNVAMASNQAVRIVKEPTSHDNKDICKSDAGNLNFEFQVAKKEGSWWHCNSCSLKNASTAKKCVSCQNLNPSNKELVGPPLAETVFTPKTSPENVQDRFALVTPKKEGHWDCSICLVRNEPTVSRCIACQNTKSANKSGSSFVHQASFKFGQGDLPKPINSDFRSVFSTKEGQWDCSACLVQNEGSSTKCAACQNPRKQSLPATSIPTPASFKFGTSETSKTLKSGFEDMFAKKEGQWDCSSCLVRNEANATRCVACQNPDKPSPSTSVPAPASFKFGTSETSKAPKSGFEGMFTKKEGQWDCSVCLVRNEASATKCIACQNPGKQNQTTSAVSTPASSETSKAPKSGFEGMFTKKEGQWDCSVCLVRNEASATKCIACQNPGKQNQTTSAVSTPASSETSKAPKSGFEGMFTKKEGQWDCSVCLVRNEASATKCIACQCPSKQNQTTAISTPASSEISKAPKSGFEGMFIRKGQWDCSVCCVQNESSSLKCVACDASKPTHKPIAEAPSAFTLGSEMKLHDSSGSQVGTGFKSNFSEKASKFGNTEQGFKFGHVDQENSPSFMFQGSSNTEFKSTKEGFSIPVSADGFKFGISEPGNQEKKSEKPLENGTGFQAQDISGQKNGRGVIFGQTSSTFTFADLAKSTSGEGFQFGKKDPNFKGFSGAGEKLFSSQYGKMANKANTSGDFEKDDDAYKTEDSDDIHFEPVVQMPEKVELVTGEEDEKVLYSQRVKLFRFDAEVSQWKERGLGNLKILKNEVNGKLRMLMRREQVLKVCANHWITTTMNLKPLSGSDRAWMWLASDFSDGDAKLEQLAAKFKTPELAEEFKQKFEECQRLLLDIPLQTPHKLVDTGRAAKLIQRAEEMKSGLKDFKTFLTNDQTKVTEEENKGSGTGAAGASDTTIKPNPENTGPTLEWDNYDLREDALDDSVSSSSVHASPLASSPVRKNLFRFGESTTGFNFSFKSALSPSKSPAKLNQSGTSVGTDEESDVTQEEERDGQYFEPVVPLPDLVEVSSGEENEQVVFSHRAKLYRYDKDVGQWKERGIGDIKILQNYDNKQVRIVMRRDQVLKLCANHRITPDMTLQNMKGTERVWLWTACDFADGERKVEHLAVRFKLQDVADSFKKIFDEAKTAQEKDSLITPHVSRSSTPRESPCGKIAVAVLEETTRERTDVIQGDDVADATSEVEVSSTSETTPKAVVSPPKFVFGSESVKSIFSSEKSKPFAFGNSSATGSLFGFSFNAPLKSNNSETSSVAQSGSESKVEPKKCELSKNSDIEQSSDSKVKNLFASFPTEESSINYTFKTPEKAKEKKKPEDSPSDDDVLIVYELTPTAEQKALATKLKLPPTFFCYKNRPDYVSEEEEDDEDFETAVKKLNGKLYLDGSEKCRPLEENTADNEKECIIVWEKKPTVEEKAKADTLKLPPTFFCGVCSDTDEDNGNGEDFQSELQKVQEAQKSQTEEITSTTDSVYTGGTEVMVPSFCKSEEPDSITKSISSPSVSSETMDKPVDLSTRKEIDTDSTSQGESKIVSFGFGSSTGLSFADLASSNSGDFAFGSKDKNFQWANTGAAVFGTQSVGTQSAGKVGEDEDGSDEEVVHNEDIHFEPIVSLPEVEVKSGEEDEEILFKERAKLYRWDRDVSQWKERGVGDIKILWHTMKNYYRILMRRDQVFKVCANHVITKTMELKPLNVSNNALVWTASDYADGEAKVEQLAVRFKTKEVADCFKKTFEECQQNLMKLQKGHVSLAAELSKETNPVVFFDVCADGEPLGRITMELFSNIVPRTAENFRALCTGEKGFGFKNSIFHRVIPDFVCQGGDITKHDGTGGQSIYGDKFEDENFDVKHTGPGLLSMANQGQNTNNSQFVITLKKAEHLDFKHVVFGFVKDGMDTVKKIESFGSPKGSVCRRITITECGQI
GST-tagged RanBP2 fragment (BICD2 binding domain, aa 2148–2240), on glutathione Sepharose: residues 2148-2240 of P49792

Tests used:
[1] = target: GST-tagged RanBP2 fragment (BICD2 binding domain, aa 2148–2240), on glutathione Sepharose (human) (UniProt P49792); test: pull-down; GST-RanBP2 or GST-Nesprin-2 held on glutathione Sepharose (not eluted), purified His6-tagged BICD2 fragment added to the column, washed, eluted; Coomassie-stained SDS-PAGE, bands quantified (3 sets); both purified
[2] = target: GST-His6-BICD2-CT (aa 630–820) K785M (mouse) (UniProt Q921C5); test: pull-down; GST-His6-BICD2-CT WT or mutant on glutathione magnetic beads, incubated 3 hrs at 4°C with untransfected or GFP-Nesprin-2 expressing HeLaM lysate (RIPA buffer); immunoblot with anti-RanBP2, anti-GFP and anti-GST, signal ratio normalised to wildtype; only the target purified
[3] = target: GST-His6-BICD2-CT (aa 630–820) wildtype (mouse) (UniProt Q921C5); test: as above
[4] = target: GST-His6-BICD2-CT (aa 630–820) L679R (mouse) (UniProt Q921C5); test: as above
[5] = target: GST-His6-BICD2-CT (aa 630–820) T699M (mouse) (UniProt Q921C5); test: as above

Substance | binding [1] | binding [2] | binding [3] | binding [4] | binding [5]
BICD2 aa 750–800 (from UniProt Q921C5-1 750-800) (domain or fragment) | no binding |  |  |  | 
RanBP2, endogenous in HeLaM cells (from UniProt P49792 1-3224) |  | binds weakly | binds | binds | binds
